# PubChem BioAssay AID686978 (National Center for Advancing Translational Sciences (NCATS), 2013)
# Hit rate of the full screen: of about 420,000 compounds, about 64,000 (15%) were called active. Inconclusive means that the source gave no clear call. Such entries were picked first, then a sample of the others. Calls come from the whole dose curve; as a rule, active = well fitted inhibition curve with a large enough effect; inconclusive = small, poorly fitted or top-dose-only effect; inactive = flat fitted curve, though single readings scatter. No potency is given beside an inconclusive call; the fits are too rough.
# Assay: qHTS for Inhibitors of human tyrosyl-DNA phosphodiesterase 1 (TDP1): qHTS in cells in absence of CPT; note: nearly all actives have a fitted effect of over 55% in size
# Conditions: DT40 Tdp1-/- hTDP1 cells, no CPT, ATP luminescence, 48 h; activity change, negative = growth inhibition: at 46.2 µM (top of the series) unless noted
# Procedure, shortened: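 DT40 Tdp1-/-;hTDP1 cells, no CPT (DMSO vehicle only), 400 cells/well; compounds pin-transferred; ≥48 hr, 37 °C; CellTiter-Glo 30 min RT dark, luminescence read.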
# % is set by controls: 0 for no effect and ±100 for the full control effect; potency is the fitted concentration of half-maximal effect; tags give direction and shape of the fitted curve.
SMILES,Potency,"activity change, negative = growth inhibition"
COc1cccc(-c2nc3sc4c(c3c(=O)[nH]2)CCCCC4)c1,"inconclusive [inhibitor, single point]",–
Cc1ccc(NC(=S)NC2CCCC2)c(C)c1,"inconclusive [inhibitor, single point]",–
CCn1c2ccccc2c2cc(NC(=O)CNCc3ccccc3OC)ccc21,active: 5.8 µM,–
COc1ccc(N2C(=O)c3ccccc3NC(=O)C2C(=O)NCCc2ccccc2F)cc1 (stereo not drawn),"inconclusive [inhibitor, single point]",–
C#CCOc1ccccc1CNC1CCN(Cc2ccccc2)CC1,active: 20.6 µM,–
COc1ccc(C2CC(c3ccccc3)=NN2C(=S)Nc2ccccc2)cc1 (stereo not drawn),"inconclusive [inhibitor, single point]",–
Cc1ccc(N2C(=O)C(CC(=O)Nc3ccccc3)N(CCC3=CCCCC3)C2=O)cc1 (stereo not drawn),active: 20.6 µM,–
O=C(NCCCN1CCN(c2cccc(Cl)c2)CC1)c1nnc(Cc2ccc(F)cc2Cl)o1,"inconclusive [inhibitor, single point]",–
CC(C)Cn1c(CN(Cc2ccccc2)Cc2ccccc2)nc2c1c(=O)n(C)c(=O)n2C,active: 14.6 µM,–
COc1ccc(OC)c(CNn2c(-c3cccc(C)c3)nc3ccccc3c2=O)c1,"inconclusive [inhibitor, single point]",–
CCOc1ccccc1NC(=O)CN1C(=O)C(=O)c2ccccc21,active: 4.11 µM,–
CC(C)NC(=O)c1sc2ncccc2c1-n1cccc1,active: 2.59 µM,–
CCCc1cc(=O)oc2cc(C)c3c(-c4ccccc4)c(C)oc3c12,"inconclusive [inhibitor, single point]",–
COc1ccc(CNC(=O)COC(=O)c2cccn2C)cc1,inactive,–
CCn1cc(CN2CCC(C(=O)Nc3cccc(-c4cccc(OC)c4)c3)CC2)c(C)n1,inactive,–
Cn1c2ccc(F)cc2c2nnc(SCCN3CCCCC3)nc21,active: 16.4 µM,–
Cc1ccc(-c2noc(CCC(=O)NCc3ccccc3CN3CCOCC3)n2)cc1,"inconclusive [inhibitor, single point]",–
CCOc1ccc(NC(=O)CSc2nc3ccccc3nc2N2CC(C)OC(C)C2)cc1 (stereo not drawn),active: 10.3 µM,–
CN(CC12CC3CC(CC(C3)C1)C2)C(=O)c1ccco1,–,inconclusive: -31.4% [inhibitor]
CN(C1=NS(=O)(=O)c2ccccc21)c1ccc(OC(=O)c2ccncc2)cc1,inactive,–
O=C(NCc1ccc(F)cc1)c1cnc(Cl)c(Cl)c1,"inconclusive [inhibitor, partial curve]",–
Cc1ccnc(NC2c3ccccc3C(=O)N2Cc2ccccc2Cl)c1 (stereo not drawn),active: 25.9 µM,–
Cc1cc(C)cc(NC(=O)C2CC23CCN(Cc2ccc4ncccc4c2)CC3)c1 (stereo not drawn),"inconclusive [inhibitor, partial curve, poor fit]",–
O=C(c1cccc(-c2ccco2)c1)N1CCCC(N2CCN(c3ccc(F)cc3)CC2)C1 (stereo not drawn),"inconclusive [inhibitor, single point]",–

SMILES,Potency,"activity change, negative = growth inhibition"
CC(=O)Nc1cccc(-c2csc(Nc3ccc(C)cn3)n2)c1,"inconclusive [inhibitor, partial curve, poor fit]",–
CC1(C)N=C(N)N=C(N)N1c1ccc(OCC(=O)Nc2ccccc2)c(Cl)c1,active: 0.731 µM,–
C/C(=N/NC(=O)C1COc2ccccc2O1)c1ccc(Br)s1 (stereo not drawn),inactive,–
CCOc1ccccc1N(CC(=O)NC1CCCCC1)C(=O)c1nsc(Cl)c1Cl,active: 25.9 µM,–
O=C(c1ccncc1)N1CCN(S(=O)(=O)c2ccccc2F)CC1,inactive,–
CC1=NN(c2nc(-c3ccc(C)cc3)cs2)C(=O)C1N=Nc1cccc(C)c1 (stereo not drawn),"inconclusive [inhibitor, single point]",–
COc1cc(C(=O)NCC(=O)NNC(=O)CN(C)S(=O)(=O)c2ccc(Cl)cc2)cc(OC)c1OC,inactive,–
COc1ccc(Cc2c(-c3cccc(Cl)c3)nc3c(C)cc(Br)cn23)c(C)c1,active: 2.59 µM,–
CCOC(=O)C1=C[C@@H](C(C)(C)C)N(S(=O)(=O)c2ccc(C)cc2)[C@H]1c1ccccc1Cl,"inconclusive [inhibitor, single point]",–
Cc1[nH]nc(-c2ccc(O)cc2O)c1Oc1ccccc1,"inconclusive [inhibitor, single point]",–
CCS(=O)(=O)c1ccc(N=Nc2ccc(O)c3ncccc23)c(OC)c1,active: 1.3 µM,–
O=C(NCc1nc2ccccc2[nH]1)C1=C[C@H](c2csc3ccccc23)C[C@H](OCc2ccc(CO)cc2)O1,active: 14.6 µM,–
CCOc1ccc(CCNC(=O)c2sc3nc4n(c(=O)c3c2C)CCCC4)cc1,"inconclusive [inhibitor, single point]",–
CCOc1ccc(S(=O)(=O)NC2CCCCC2C)cc1 (stereo not drawn),"inconclusive [inhibitor, partial curve]",–
O=C(N/C(=C/c1ccc(Br)cc1)C(=O)N1CCCCC1)c1ccccc1F,"inconclusive [inhibitor, single point]",–
CCc1cccc(NC(=O)c2ccc(Br)o2)c1,inactive,–
Cc1cc(C)c(OCC(O)CN2CCN(c3ccccn3)CC2)c(C)c1 (stereo not drawn),inactive,–
COc1cc(Cl)c(C)cc1NC(=O)COC(=O)C1CC1C (stereo not drawn),inactive,–
O=C(COc1ccccc1)NC(=S)Nc1ccc2c3c(cccc13)CC2,–,inconclusive: -35.3% [inhibitor]
CC(/C=C1\SC(=S)N(CCCC(=O)Nc2ccc(C(=O)O)cc2)C1=O)=C\c1ccccc1,"inconclusive [inhibitor, single point]",–
CC(=O)Nc1ccc(NC(=O)c2ccccc2N(C)S(=O)(=O)c2ccccc2)cc1,inactive,–
CCc1cccc(CC)c1NC(=O)CSc1nc2ccc(N3C(=O)C4C5C=CC(C5)C4C3=O)cc2s1 (stereo not drawn),active: 18.4 µM,–
CCCCNC(=O)/C(=C/c1ccco1)NC(=O)c1ccco1,inactive,–
CCc1nc2ccc(C(=O)NCCNC(C)=O)cn2c1N(CCC(C)C)CCN(C)C,inactive,–
